Assay results taken from the supplement of paper PMC12632987.
The full ranking holds about 2,300 sequences; the median of “median log2 fold change of GCK-ALFA target abundance (FLAG IP / Myc IP barcode read proportion)” is about 0.095, and the lowest 2% start at about -0.47. The list shows a part of the results.

B1: LC3A_127_179 (protein)
chain: STKEEALKLAEKIIELAEKMLDEDTSLEERIELAKKIIEYAKELKKLKPELKEDVDELIELAKEVLKRFEAGEELDEIIEMLIEGIIVTAELIKLKLEEE
B2: LC3A_28_790 (protein)
chain: SKLRENAEKALKEAKEAAAKGISQVITIEVGGDATEEDIDYVIEKLKEIAEVLKDIEGQAIIIDVGKGVSQEHIDKLMKAAEEIEKKYPNVTVIIALEER
B3: LC3A_free_46_2386 (protein)
chain: AEGYLYALAGPADLETLEKLAKEVKKAAEEVAKEYGVEVEVKVEIIKEEDGTYELFIEVKIKGETLETVEKALDAIEERIEEIAKKHGVKVASIISYEED
B4: LC3A_147_496 (protein)
chain: ATVEVDVLVKDKEAAEKVVEEFKKLVEKLKKQGIEVELEVEIEQISPDTWYVKITIKIKAKTEEEEKKVANEVVDEIEKIEEKYKDKILASLISVEIEEK
B5: LC3A_147_453 (protein)
chain: KTYVITVDALFRNDPALAAEVEAEIRAIAEENGAEVEVEREEIQETPTTTLYYLRVTLRTEDEEKALAAEKAVSELLDRVAKEHPEKFLGAIISFEVEED
B6: LC3A_free_39_2245 (protein)
chain: SAAALEAARAEILELAAEEGEEALALAEEVLAILAGDVAATQRLLELLKEIKEDGGDLLAVLKEMVAVARELEAAGASQEEINAAIVEEAEDHLNLIPLD
B7: LC3A_28_1174 (protein)
chain: MATPEELAAALAEARAARAAGEPATVRIRVGGGTTPEETERVIATMREIAELLRDVPGAAILVDIDSGVPQEHIDRLLEEGERIEEEYPNVTVIFALDEE
B8: LC3A_3_1636 (protein)
chain: MEEKIEAREKALRAAGHSEETIEAFRETAELLKEKGYYEALETLIEKMEELLDLPDEILLDMLEEVKRVVEEPDKTEEEVIEEIERIATVARNEGEIEEL
B9: LC3A_147_446 (protein)
chain: YRVEVEIDLLLKNEPEVAKELVEKLKETLEELGVEAEIEVEIEKIDENTVYAEIRIIAEVETLEEAEEVRDALIDTVDEFEEKNKDKILGSLISYEIEEV
B10: LC3A_free_39_2277 (protein)
chain: SMEEHEEVLERLEELAEEMSPEAAANLKELVEIFKDDTEALRRLAEALEEAKEEGADMTEVTKEALEIAKQGKERGLSKEEIAEEVLEEIRDHINLIPLD
B11: LC3A_free_39_2225 (protein)
chain: SEEELEKLIKEVAKESGVDYEELKKKIEEIKKVAGLSNEEILKIVEAILEAVKAGADAKEIVEEALKLAKELKKEGKSPEEILKEILELIEDYRNLVPLD
B12: LC3A_3_1681 (protein)
chain: MDELVKEVLEEAKKNGLSEEALEALKELLEELKKRGFLNAIKTLLEKLKELKDIPSEILKDMFEDLLYLLKNEDLSEEEIVEKIKEEARIAKSEKEIIEL
B13: LC3A_28_1157 (protein)
chain: SKIEEEIARAKAELDAAIAAGEDAVITIKVTGDATEEDIEKLIKALEELAAKGEKHGVTAIIIDVDSKVKQEHIDKLADAAEEIEKKYPNITIIIALSDE
B14: LC3A_28_898 (protein)
chain: MSALESAEAALAAVRAAVAAGDQAPLVLEVKAPSTEEDTEKLIELLEEIAREASQLTGVTIVIDIDESVSEENQQKLIDKAEELEKKYPNVTVIIALPES
B15: LC3A_28_869 (protein)
chain: SAIEEAVKAAREELEKQAAQGEDGVVTVKVTKETSLEEAKELLERVAKVAKEVAEKTGLKVTIVIDDDRDQESADELADLAEKLEKEDPKITVIIALSEE
B16: LC3A_132_298 (protein)
chain: DEEKAKEILEKVKEKVEEAKENIDNEEKVEELLEEIEELIKEAEEKLSPELLAKVMEEVAELLDELSQKFLEAGKEHLAMLADGLAIEAESLALRAEKEI
B17: LC3A_3_1372 (protein)
chain: MEEEIEETLEYLREKGHSEETIEAVREALEALKEAGYEEALKTFIELMKRLAHLPDELLLWFAEDVLRAVTEEDLSEEELIEFIKREARIAESEAEIIEL
B18: LC3A_13_349 (protein)
chain: SVTITAETAEELLKKGTAALDANPGQTINITVTVRDEAEADAVAEAIKELIDKAIEKGNSLNVTIKGKRDLVLYAAVEVGAHIAEILGKADVNVSTEEVE
B19: LC3A_132_277 (protein)
chain: DEEKKKRAIEKVRELARKAKEAIDDPEKVKELLEEMRKYLKEVEKTESPEVAAAVAEEAERELDELARALEEAGLEDLALEADSLAIEAASLAIRAEKKI
B20: LC3A_28_863 (protein)
chain: SETRESIERARKELEEARAAGEPRVITVRVTEDVTEEEVDEVIALIDEVAAASKEVPGLALVIDVDGKVDPEKLQRIMDAAEAAEAANPGLTVIFALDEE
B21: LC3A_147_480 (protein)
chain: AEVDIDVLVKNEETADKLIAMAEELKKELEAKGIEVEVEIKREKLDPNTWYVEIRFKIKAPTEEEEKAAAQEIVDRFDEFIEENKDEVLASIISVEFIER
B22: LC3A_132_276 (protein)
chain: EEEKTKEAIKKVEELAEEAKKNIDDEEKVKELLEEIEEFLKKVAETESPKVAAAVAEKAAEELDKLARELEKAGKEELALEADSLAIEAASLSLRAEKKL
B23: LC3A_free_46_2319 (protein)
chain: YKAEIDIDFFGVDEETAKALVEELEKKIKEIAKKYGLKVKIEVEVEKNEDGTYYVRVKITLEGEDKEKLEAAVNEIIDAADEIAEKYGASYVISYEIEEK
B24: LC3A_3_1635 (protein)
chain: MDEEVEETLELLREAGASEETLEAFRETAELLKERGYYEALKTLIEETRELLDLPSELLLSFFEEVLEYLKTNDANEEEVIEEIKRIATITRNEGEIIEL
B25: LC3A_45_1958 (protein)
chain: MYLATVDVLVPAEDFDAAAATLRAAVAEVSAEMGVDASIDPAALAAAREEAKATGEALLTVTVRADDKQTALDAAVRISDRLEEALGTRVASIISVEEIP
B26: LC3A_free_0_2117 (protein)
chain: KKTVVEVVIILDESVDEETAEEIYKELKEKAEELAKEKGGELKSSLSKSDGRYIITIEITLPTEDIDLALEVERELVEMAEEILKKHGVEATIYSSVYLE
B27: LC3A_28_1153 (protein)
chain: SAGVEAAKAQIEKDAEKDKNEEEVYLNVTITSTMTVEEAKEIMEHVEEVVEKLKDKKKIYVLVTFEEPVSQEVLDTVLEMAEEIEKKYPNVSVIIALPED
B28: LC3A_28_1199 (protein)
chain: SAADATIAAIKAQAAKALAEGDGTVITVNITSTMTQADIDAINATIKEEAAKLADVKSVSIVINVEAGVPQENITALAETGDEIEKKYPNITVIIALDED
B29: LC3A_free_39_2178 (protein)
chain: SEEELEKAKAELLKLAEEEGEETLKIVEEILKLLEGNLELVKLLVEGLKKIKEEGGDVKETVEEILEVIKELKAKGKSMEEILEKVKEIIEDHLNLIPLE

Each binder was assayed against MAP1LC3A, Q9H492 (assay: median log2 fold change of GCK-ALFA target abundance (FLAG IP / Myc IP barcode read proportion) (log2 ratio); each designed protein is fused to an ALFA-tag nanobody in HEK293 cells to bring the named protein to FLAG-tagged glucokinase (GCK); Myc marks an untargeted standard; higher = target protein stabilised (more abundant)). Conditions: target protein: 3xFLAG-MCP-GCK-ALFA reporter; HEK293 landing pad (RPLP).
Procedure, shortened: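 Binders fused to an ALFA nanobody were recombined as a library into HEK293 landing-pad cells, which were induced with 2 μg mL^−1 doxycycline and then transfected to express a FLAG-tagged target and a Myc-tagged standard. After 48 h, circular RNA barcodes recovered by anti-FLAG and anti-Myc immunoprecipitation of lysates were reverse transcribed, amplified and sequenced. Each binder's target abundance is the median log2 ratio of FLAG to Myc barcode read proportions, from barcodes present at ≥10^−7 in both replicates, binders carrying ≥3 barcodes per replicate, a 10^−6 pseudocount and pooled replicates.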

Binder	median log2 fold change
B1	-0.226
B2	0.203
B3	0.194
B4	-0.154
B5	-0.42
B6	0.146
B7	0.08
B8	0.158
B9	-0.092
B10	0.22
B11	0.123
B12	0.312
B13	-0.0736
B14	0.201
B15	-0.37
B16	-0.0134
B17	0.0414
B18	0.0758
B19	0.167
B20	-0.0658
B21	0.0243
B22	0.0719
B23	0.0759
B24	0.106
B25	-0.0695
B26	-0.244
B27	-0.206
B28	0.247
B29	0.172
